Several values for one entry are separate records, joined by “and”; a condition that tells them apart may be missing. Equal values may be shown once. Read-outs that look alike come from different tables or passages of the source.

A short description of data set [1]: Tolerability in mice injected with compound 2a (adverse events, body weight). In kind it is in vivo. Conditions: all experiments; mice injected with compound 2a.
The test system of the next data set is Neuro2a cells. Kind of data set: Cytotoxicity of compound 2a in Neuro2a cells (cell survival, CCK8). In kind it is cell-based, mouse. The method, then:
Cell survival experiments were run on 96-well plates using Cell Counting Kit-8 (CCK8) survival kit (96992-Sigma) according the manufacturer's recommendations. Compound 2a cytotoxicity was tested on Neuro2a cells receiving increasing amount of compound 2a (1, 10, 50, 100, 200, 500 and 1000 μM) for 48 hours.

For `N=C(N)NN=Cc1cccc(C=NNC(=N)N)c1` [Compound 2a, 1,3-Bis-amino guanidine phenyl hydrazone], the “cell toxicity and adverse events” value in data set [1] is listed as “did not observe cell toxicity in Neuro2a as well as any adverse events in mice”. Besides, the “toxic effects in cells (cell survival)” value in the data set with Neuro2a cells (10 μM, untransfected Neuro2a) is “did not elicit toxic effects in cells”. For the same compound, the LD50 in the data set with Neuro2a cells (Neuro2a, increasing amount of 2a for 48 hours, non-linear fitting of cell survival) is ~260 µM and 257.9 µM. Moreover, the “neuronal firing (spikes)” value is “slight, but not significant, reduction of spikes” in the data set on primary cortical neurons (highest concentration of 2a (100 μM)) and “did not alter neuronal firing” in the data set on primary cortical neurons (low concentrations of compound 2a).

These data come from patent US20220213030A1, “AMINOGUANIDINE HYDRAZONES AS RETROMER STABILIZERS USEFUL FOR TREATING NEUROLOGICAL DISEASES” (OSPEDALE SAN RAFFAELE SRL, priority 2019, published 2022).
